# This is one part of the list.
# B1: PhoQ; a variant is named by its letters at X, in order, P23837 (parent)
# chain: MKKLLRLFFPLSLRVRFLLATAAVVLVLSLAYGMVALIGYSVSFDKTTFRLLRGESNLFYTLAKWENNKLHVELPENIDKQSPTMTLIYDENGQLLWAQRDVPWLMKMIQPDWLKSNGFHEIEADVNDTSLLLSGDHSIQQQLQEVREDDDDAEMTHSVAVNVYPATSRMPKLTIVVVDTIPVELKSSYMVWSWFIYVLSANLLLVIPLLWVAAWWSLRPIEALAKEVRELEEHNRELLNPATTRELTSLVRNLNRLLKSERERYDKYRTTLTDLTHSLKTPLXXLQXXLRSLRSEKMSVSDAEPVMLEQISRISQQIGYYLHRASMRGGTLLSRELHPVAPLLDNLTSALNKVYQRKGVNISLDISPEISFVGEQNDFVEVMGNVLDNACKYCLEFVEISARQTDEHLYIVVEDDGPGIPLSKREVIFDRGQRVDTLRPGQGVGLAVAREITEQYEGKIVAGESMLGGARMEVIFGRQHSAPKDE
# Variants of: B1
# Assay: enrichment ratio after two sorts for PhoP signalling (ratio (wild type AVST 3.29)); higher = more functional
# Conditions: with PhoP (E. coli)
row,Variant,enrichment ratio
1,HEWD,≤ 0.25
2,LKYD,≤ 0.25
3,ADPS,≤ 0.25
4,ELEH,≤ 0.25
5,HDGG,≤ 0.25
6,LHRF,≤ 0.25
7,VEQD,≤ 0.25
8,VFMK,≤ 0.25
9,PKLW,≤ 0.25
10,NREE,≤ 0.25
11,TTMN,8.25
12,QFVR,≤ 0.25
13,HKWH,≤ 0.25
14,GVVV,≤ 0.25
15,TNYE,≤ 0.25
16,PPVR,≤ 0.25
17,TELM,13.8
18,LFPR,≤ 0.25
19,HLGD,≤ 0.25
20,SIEQ,≤ 0.25
21,VKER,≤ 0.25
22,HIKA,≤ 0.25
23,MHRD,≤ 0.25
24,INFF,≤ 0.25
25,FLDW,≤ 0.25

row,Variant,enrichment ratio
1,ADTI,≤ 0.25
2,RKVL,≤ 0.25
3,MNRR,≤ 0.25
4,AVMP,0.383
5,QNHE,≤ 0.25
6,DVKP,≤ 0.25
7,NYNV,≤ 0.25
8,TEMP,≤ 0.25
9,VWSW,≤ 0.25
10,WNTC,≤ 0.25
11,WIYA,≤ 0.25
12,HKPQ,≤ 0.25
13,LRNN,≤ 0.25
14,QVTW,≤ 0.25
15,MVNF,4.62
16,ARER,≤ 0.25
17,IANF,≤ 0.25
18,LDEV,≤ 0.25
19,GRSM,≤ 0.25
20,QHSC,≤ 0.25
21,LTAV,≤ 0.25
22,WNAD,≤ 0.25
23,YDTS,≤ 0.25
24,TTVV,2.55
25,EREI,≤ 0.25

row,Variant,enrichment ratio
1,QLAN,≤ 0.25
2,TNCS,0.621
3,WVLC,≤ 0.25
4,ATHI,≤ 0.25
5,KHGT,≤ 0.25
6,ATGF,7.16
7,DFDL,≤ 0.25
8,DKLH,≤ 0.25
9,EETI,≤ 0.25
10,RSHK,≤ 0.25
11,SGCC,14.2
12,AIEP,≤ 0.25
13,YMYP,≤ 0.25
14,VSVN,≤ 0.25
15,RGMW,≤ 0.25
16,WDDQ,≤ 0.25
17,QSFT,6.28
18,TFLV,≤ 0.25
19,QIQK,≤ 0.25
20,LDQP,≤ 0.25
21,LVFT,≤ 0.25
22,DYCI,≤ 0.25
23,HSWD,≤ 0.25
24,VYMS,≤ 0.25
25,MHKK,≤ 0.25

row,Variant,enrichment ratio
1,SINP,≤ 0.25
2,PHFH,≤ 0.25
3,MKTV,≤ 0.25
4,PGCE,≤ 0.25
5,NLQI,≤ 0.25
6,ESDE,≤ 0.25
7,RLFH,≤ 0.25
8,SEHD,≤ 0.25
9,SVAQ,7.86
10,NCFQ,≤ 0.25
11,KNVC,≤ 0.25
12,HYYM,≤ 0.25
13,QDRR,≤ 0.25
14,QHPW,≤ 0.25
15,KVGC,≤ 0.25
16,HEIW,≤ 0.25
17,ITGM,≤ 0.25
18,LQIN,≤ 0.25
19,FHWR,≤ 0.25
20,QHMA,≤ 0.25
21,FEQS,≤ 0.25
22,KLQQ,≤ 0.25
23,QNSC,≤ 0.25
24,TSQI,9.84
25,QEGH,24.6

row,Variant,enrichment ratio
1,APMI,≤ 0.25
2,MYHM,≤ 0.25
3,NQLI,≤ 0.25
4,EENA,≤ 0.25
5,FGIH,≤ 0.25
6,AESV,14.8
7,GNMM,0.333
8,DMQR,≤ 0.25
9,NAQR,≤ 0.25
10,HYWW,≤ 0.25
11,WDED,≤ 0.25
12,MLEE,≤ 0.25
13,FFMC,≤ 0.25
14,PWSR,≤ 0.25
15,VLGK,≤ 0.25
16,LTWM,≤ 0.25
17,IGCF,≤ 0.25
18,KNKL,≤ 0.25
19,YLHS,≤ 0.25
20,INLK,≤ 0.25
21,RAEY,≤ 0.25
22,SHGS,≤ 0.25
23,PMCF,≤ 0.25
24,QIQH,≤ 0.25
25,PQPQ,≤ 0.25

row,Variant,enrichment ratio
1,STDY,≤ 0.25
2,DLWP,≤ 0.25
3,QCDC,≤ 0.25
4,GELT,11.2
5,INTY,0.258
6,SQYK,≤ 0.25
7,RFYD,≤ 0.25
8,EHFH,≤ 0.25
9,KGEV,≤ 0.25
10,DWKQ,≤ 0.25
11,FFFV,≤ 0.25
12,DYHH,≤ 0.25
13,KTDT,≤ 0.25
14,RHMD,≤ 0.25
15,YAMS,≤ 0.25
16,DKLV,≤ 0.25
17,YNAD,≤ 0.25
18,DRME,≤ 0.25
19,RDSG,≤ 0.25
20,WEHI,≤ 0.25
21,VGKV,≤ 0.25
22,SKKL,≤ 0.25
23,TNQA,8.91
24,HYKD,≤ 0.25
25,QCHI,≤ 0.25

row,Variant,enrichment ratio
1,THCF,17.5
2,QFFC,≤ 0.25
3,DTAW,≤ 0.25
4,PKHS,≤ 0.25
5,WAYD,≤ 0.25
6,HNLI,≤ 0.25
7,IKIY,≤ 0.25
8,GHFA,≤ 0.25
9,IWEP,≤ 0.25
10,MTEH,≤ 0.25
11,FSKR,≤ 0.25
12,RMSV,≤ 0.25
13,VHHV,≤ 0.25
14,SGVK,≤ 0.25
15,IELE,≤ 0.25
16,AGHS,≤ 0.25
17,VLVW,≤ 0.25
18,HEEI,≤ 0.25
19,SRPM,≤ 0.25
20,RCRR,≤ 0.25
21,TRYC,≤ 0.25
22,DRNN,≤ 0.25
23,FRHG,≤ 0.25
24,RMVW,≤ 0.25
25,FKCD,≤ 0.25

row,Variant,enrichment ratio
1,WWTW,≤ 0.25
2,LRLN,≤ 0.25
3,HQHH,≤ 0.25
4,FPII,≤ 0.25
5,LARW,≤ 0.25
6,MLSF,0.952
7,RPYH,≤ 0.25
8,HRMH,≤ 0.25
9,FFAY,≤ 0.25
10,SGNI,2.01
11,HGKT,≤ 0.25
12,NKND,≤ 0.25
13,RSYD,≤ 0.25
14,QRMR,≤ 0.25
15,MSAM,10.5
16,YLNA,≤ 0.25
17,RTHI,≤ 0.25
18,FDEA,≤ 0.25
19,LCAY,2.56
20,EQQG,≤ 0.25
